# Source: the supplement of paper PMC8728848
# The other results are listed elsewhere or left out.
# Assays:
# Test in all cases: glycan array binding signal (z-score within array); higher = stronger binding
# Conditions in all cases: glycan notation: IUPAC condensed, linker removed
# [1] = target: Gal(b1-3)[Fuc(a1-4)]GlcNAc(b1-3)Gal(b1-4)[Fuc(a1-3)]GlcNAc
# Method in brief: (§1)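 Glycan array data were curated from 3228 arrays in the Consortium for Functional Glycomics database and kept only where the protein sequence was available. Glycan names were converted to IUPAC-condensed notation, and columns mapping to the same glycan were averaged. The binding signal is a within-array Z-score, averaged across arrays of the same protein sequence at different concentrations or buffers and across linkers. Negative Z-scores can be read as non-binding.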
# [2] = target: Gal(b1-3)[GlcNAc(b1-6)]GalNAc
# Method in brief: as §1
# [3] = target: Gal(b1-3)[Neu5Ac(a2-6)]GalNAc
# Method in brief: as §1
# [4] = target: Gal(b1-3)[Neu5Ac(a2-6)]GlcNAc(b1-6)Gal(b1-4)Glc
# Method in brief: as §1
# [5] = target: Gal(b1-3)[Neu5Ac(b2-6)]GalNAc
# Method in brief: as §1
# [6] = target: Gal(b1-4)GalNAc(a1-3)[Fuc(a1-2)]Gal(b1-4)GlcNAc
# Method in brief: as §1
# [7] = target: Gal(b1-4)GalNAc(b1-3)[Fuc(a1-2)]Gal(b1-4)GlcNAc
# Method in brief: as §1
# Gal(b1-4)Glc = target: Gal(b1-4)Glc
# Method in brief: as §1
# Gal(b1-4)Glc6S = target: Gal(b1-4)Glc6S
# Method in brief: as §1
# Gal(b1-4)GlcNAc = target: Gal(b1-4)GlcNAc
# Method in brief: as §1
# [8] = target: Gal(b1-4)GlcNAc(a1-6)Gal(b1-4)GlcNAc
# Method in brief: as §1
# [9] = target: Gal(b1-4)GlcNAc(b1-2)Man(a1-3)[Gal(b1-4)GlcNAc(b1-2)Man(a1-6)]Man(b1-4)GlcNAc(b1-4)GlcNAc
# Method in brief: as §1
# [10] = target: Gal(b1-4)GlcNAc(b1-3)Gal(b1-3)GlcNAc
# Method in brief: as §1
# [11] = target: Gal(b1-4)GlcNAc(b1-3)Gal(b1-4)Glc
# Method in brief: as §1
# [12] = target: Gal(b1-4)GlcNAc(b1-3)Gal(b1-4)GlcNAc
# Method in brief: as §1
# [13] = target: Gal(b1-4)GlcNAc(b1-3)Gal(b1-4)GlcNAc(b1-3)Gal(b1-4)GlcNAc
# Method in brief: as §1
# [14] = target: Gal(b1-4)GlcNAc(b1-3)Gal(b1-4)[Fuc(a1-3)]GlcNAc(b1-3)Gal(b1-4)[Fuc(a1-3)]GlcNAc
# Method in brief: as §1
# [15] = target: Gal(b1-4)GlcNAc(b1-3)GalNAc
# Method in brief: as §1
# [16] = target: Gal(b1-4)GlcNAc(b1-3)[Gal(b1-4)GlcNAc(b1-6)]Gal(b1-4)GlcNAc
# Method in brief: as §1
# [17] = target: Gal(b1-4)GlcNAc(b1-3)[GlcNAc(b1-6)]Gal(b1-4)GlcNAc
# Method in brief: as §1
# [18] = target: Gal(b1-4)GlcNAc(b1-6)Gal(b1-4)GlcNAc
# Method in brief: as §1
# [19] = target: Gal(b1-4)GlcNAc(b1-6)Gal(b1-4)GlcNAc(b1-6)GalNAc
# Method in brief: as §1
# [20] = target: Gal(b1-4)GlcNAc(b1-6)GalNAc
# Method in brief: as §1
# [21] = target: Gal(b1-4)GlcNAc(b1-6)[Gal(b1-3)]GalNAc
# Method in brief: as §1
# Gal3S(b1-3)GalNAc = target: Gal3S(b1-3)GalNAc
# Method in brief: as §1
# Gal3S(b1-3)GlcNAc = target: Gal3S(b1-3)GlcNAc
# Method in brief: as §1
# [22] = target: Gal3S(b1-3)[Fuc(a1-4)]GlcNAc
# Method in brief: as §1
# Gal3S(b1-4)Glc = target: Gal3S(b1-4)Glc
# Method in brief: as §1
# Gal3S(b1-4)Glc6S = target: Gal3S(b1-4)Glc6S
# Method in brief: as §1
# Gal3S(b1-4)GlcNAc = target: Gal3S(b1-4)GlcNAc
# Method in brief: as §1
# Gal3S(b1-4)GlcNAc6S = target: Gal3S(b1-4)GlcNAc6S
# Method in brief: as §1
# [23] = target: Gal3S(b1-4)[Fuc(a1-3)]Glc
# Method in brief: as §1
# Gal3S4S(b1-4)GlcNAc = target: Gal3S4S(b1-4)GlcNAc
# Method in brief: as §1
# Gal3S6S(b1-4)GlcNAc = target: Gal3S6S(b1-4)GlcNAc
# Method in brief: as §1
# Gal3S6S(b1-4)GlcNAc6S = target: Gal3S6S(b1-4)GlcNAc6S
# Method in brief: as §1
# Gal4S(b1-4)GlcNAc = target: Gal4S(b1-4)GlcNAc
# Method in brief: as §1
# Gal4S6S(b1-4)GlcNAc = target: Gal4S6S(b1-4)GlcNAc
# Method in brief: as §1
binder,measurement,setting,value
BDCA2 ex-domain (Homo sapiens) (protein) MASHHHHHHIEGRGLNDIFEAQKIEWHESLVPRGSCPTPWTSFQSSCYFISTGMQSWTKSQKNCSVMGADLVVINTREEQDFIIQNLKRNSSYFLGLSDPGGRRHWQWVDQTPYNENVTFWHSGEPNNLDERCAIINFRSSEEWGWNDIHCHVPQKSICKMKKIY,glycan array binding signal (z-score),[1],-0.194
same,glycan array binding signal (z-score),[2],-0.038
same,glycan array binding signal (z-score),[3],-0.183
same,glycan array binding signal (z-score),[4],0.856
same,glycan array binding signal (z-score),[5],0.01
same,glycan array binding signal (z-score),[6],-0.178
same,glycan array binding signal (z-score),[7],-0.375
same,glycan array binding signal (z-score),Gal(b1-4)Glc,0.453
same,glycan array binding signal (z-score),Gal(b1-4)Glc6S,-0.197
same,glycan array binding signal (z-score),Gal(b1-4)GlcNAc,-0.104
same,glycan array binding signal (z-score),[8],-0.267
same,glycan array binding signal (z-score),[9],13.2
same,glycan array binding signal (z-score),[10],-0.024
same,glycan array binding signal (z-score),[11],-0.141
same,glycan array binding signal (z-score),[12],0.455
same,glycan array binding signal (z-score),[13],1.12
same,glycan array binding signal (z-score),[14],0.128
same,glycan array binding signal (z-score),[15],-0.271
same,glycan array binding signal (z-score),[16],-0.11
same,glycan array binding signal (z-score),[17],-0.582
same,glycan array binding signal (z-score),[18],-0.387
same,glycan array binding signal (z-score),[19],-0.265
same,glycan array binding signal (z-score),[20],-0.505
same,glycan array binding signal (z-score),[21],-0.26
same,glycan array binding signal (z-score),Gal3S(b1-3)GalNAc,-0.423
same,glycan array binding signal (z-score),Gal3S(b1-3)GlcNAc,-0.181
same,glycan array binding signal (z-score),[22],-0.411
same,glycan array binding signal (z-score),Gal3S(b1-4)Glc,-0.238
same,glycan array binding signal (z-score),Gal3S(b1-4)Glc6S,-0.21
same,glycan array binding signal (z-score),Gal3S(b1-4)GlcNAc,-0.181
same,glycan array binding signal (z-score),Gal3S(b1-4)GlcNAc6S,-0.422
same,glycan array binding signal (z-score),[23],-0.316
same,glycan array binding signal (z-score),Gal3S4S(b1-4)GlcNAc,1.81
same,glycan array binding signal (z-score),Gal3S6S(b1-4)GlcNAc,-0.278
same,glycan array binding signal (z-score),Gal3S6S(b1-4)GlcNAc6S,-0.253
same,glycan array binding signal (z-score),Gal4S(b1-4)GlcNAc,0.395
same,glycan array binding signal (z-score),Gal4S6S(b1-4)GlcNAc,-0.342
